Experimental findings from PubChem BioAssay AID463173 (ICCB-Longwood Screening Facility, Harvard Medical School, 2010) are described below.

Screen size: about 52,000 compounds; about 1,700 (3.3%) were called active. Rule as the data show it: active = survival mostly below about 52% (no sharp cut-off); inactive = mostly above about 56%. This is one part of the list.

The experiment relates to Wild type. Nature of the experiment: growth inhibition of S. aureus wild type versus tarO mutant, primary screen, teichoic acid synthesis inhibitors, RN4220, OD600 (AID 463173). The following applies: S. aureus RN4220 wild type/DeltatarO growth, OD600, 18 h, hits give low values, screened at 18.75 µg/mL (by protocol).
Consider `Cc1ccc(-n2nnc3c(sc4nc(C)c(C)cc43)c2=O)cc1Cl`, for which the survival is inactive: 84%. Then `Cc1ccc(C)c(NC(=O)C2CCCN(S(=O)(=O)c3c(C)noc3/C=C/N(C)C)C2)c1` (stereo not drawn), with inactive: 115%; and `COc1ccc(CSc2nc3ncccc3[nH]2)cc1`, with inactive: 72%; and `O=C(NC1CCCC1)c1c[nH]c2ccc(S(=O)(=O)Nc3cccc(C(F)(F)F)c3)cc2c1=O`, with active: 11%. Then `COc1ccc(CNC(=O)C2=C(C(=O)O)CCCC2)cc1`, with inactive: 121%; and `COc1cccc(N2CC(NC(=O)c3ccc(S(=O)(=O)N4CCCC4)cc3)CC2=O)c1` (stereo not drawn), with inactive: 59%; and `COCCNC(=O)C1CCN(S(=O)(=O)c2ccc3c(c2)CCCN3C(C)=O)CC1`, with inactive: 77%. Consider `COc1ccc(-c2nc3n(n2)C(c2ccc(OC)cc2)C(C(=O)Nc2cccnc2)=C(C)N3)cc1` (stereo not drawn), for which the survival was inactive: 73%.

Consider `CCOC(=O)c1[nH]c(C)c(CCC(=O)N2CCN(c3ccccc3)CC2)c1C`, for which the survival is inactive: 91%. Then `CCOC(=O)c1c(C)oc2nc(C)nc(NCC3CCN(Cc4ccc(Cl)cc4)CC3)c12`, with inactive: 78%. Then `CC(=O)OCC#CCSc1nnc(-c2cccc(Br)c2)o1`, with inactive: 49%. Then `CCN(c1ccccc1)S(=O)(=O)c1nnc(NC(=O)COc2ccc(OC)cc2)s1`, with inactive: 81%; and `CCOC(=O)c1c(C)[nH]c(CCC(=O)NCCCN2CCN(c3cccc(Cl)c3)CC2)c1C`, with inactive: 70%. For the compound `CCOc1ccc(-n2c(Cc3ccccc3)nnc2SCc2nc(-c3ccccc3C)no2)cc1`, the survival is inactive: 90%. Then `CC(=O)NCCNC(=O)CCCc1nnc2n(CCC(C)C)c(=O)c3sccc3n12`, with inactive: 97%; and `CCn1c(CN2CCC(C)CC2)nc2cc(NC(=O)c3ccccc3[N+](=O)[O-])ccc21`, with inactive: 80%. Then `Cc1ccc(C)c(Cn2c(=O)c3c(nc4n3CCN4c3ccc(F)cc3)n(C)c2=O)c1`, with inactive: 91%; and `CC(C)N(C(=O)c1cc2sccc2n1Cc1ccc(F)cc1)C(C)C`, with inactive: 135%. Consider `CCc1ccc(OC(=O)CSc2nnc(-c3ccc4c(c3)OCO4)o2)cc1`, for which the survival is inactive: 85%. Turning to `CCS(=O)(=O)N1CCc2cc(C(=O)N3CCN(c4cccc(C(F)(F)F)c4)CC3)ccc21`, the survival is inactive: 95%. Regarding `Cc1ccc(NC(=O)C(=O)NCC(c2cccnc2)N2CCOCC2)cc1C` (stereo not drawn), the survival is inactive: 83%.

As for `Oc1cccc(C(Nc2ccccn2)c2ccc3cccnc3c2O)c1Cl` (stereo not drawn), the survival was inactive: 76%. Then `CCOCCCNC(=O)C(c1ccc(OC)cc1)N(Cc1cccs1)C(=O)c1ccc(NC(C)=O)cc1` (stereo not drawn), with inactive: 74%.

Consider `Cc1cc(-c2ccc(N3C(=O)CCC3=O)c(C)c2)ccc1N1C(=O)CCC1=O`, for which the survival was inactive: 107%. In the case of `Cc1ccc(C(=O)c2oc3ccccc3c2NC(=O)c2cc(=O)c3ccccc3o2)cc1`, the survival is inactive: 88%. Then `COc1ccc(CNC(=O)Cn2ccc3cc(S(=O)(=O)N4CCCCCC4)ccc32)cc1OC`, with inactive: 120%; and `COc1cccc(-c2cn3c(n2)sc2cc(C(=O)NCc4cccs4)ccc23)c1`, with inactive: 66%; and `CCOc1ccc2nc(Cl)c(CN(Cc3ccco3)C(=O)C3CC3)cc2c1`, with inactive: 101%. Then `COc1ccc2oc(=O)cc(CN3CCN(C(=O)c4ccccc4F)CC3)c2c1`, with inactive: 76%; and `CCCCC(CC)C(=O)Nc1nnc(C(C)C)s1` (stereo not drawn), with inactive: 110%. As to `NC(=O)C1CCN(CC(=O)Nc2ccccc2)CC1`, the survival is inactive: 97%. Then `O=C(CC(c1ccccc1)c1ccccc1)N1CCN(c2ccccn2)CC1`, with inactive: 99%; and `Cc1ccc(Cl)cc1N1CCN(C(=O)c2cc(S(=O)(=O)N3CCC(C)CC3)cn2C)CC1`, with inactive: 70%. Take `CC(=O)Nc1ccc(NC(=O)CC2Sc3ccccc3NC2=O)cc1` (stereo not drawn): the survival was inactive: 154%. Then `CCOc1ccc(CNS(=O)(=O)c2ccc3[nH]c4c(c3c2)CCCC4)cc1OC`, with inactive: 55%; and `Cc1c(CNCc2ccc(Cl)cc2)c(C(=O)O)c(C)n1Cc1ccc(F)cc1`, with inactive: 98%. Then `CCOc1ccc(CNC(=O)C2CCN(S(=O)(=O)c3c(C)noc3/C=C/c3ccc(C)cc3)CC2)cc1OC`, with inactive: 71%; and `COc1ccc(NC(=O)Cn2c(CCC(=O)O)ccc2-c2ccccc2)cc1Cl`, with inactive: 84%. Then `COc1cccc(CNC(=O)CCc2nnc3n(C)c(=O)c4sccc4n23)c1`, with inactive: 64%; and `CCCN(CCC)CCCNC(=O)C1CCC(CNS(=O)(=O)c2ccc(NC(C)=O)cc2)CC1` (stereo not drawn), with inactive: 66%; and `CCN1C(=O)N(CC)C2NC(=S)NNC21` (stereo not drawn), with inactive: 103%.

Turning to `CCOC(=O)c1c(C)oc2nc(C)nc(Nc3cccc(OC)c3)c12`, the survival was inactive: 80%.

Turning to `CCOC(=O)Cc1ccc(NC(=O)n2ncc3c(C)cccc32)cc1`, the survival is inactive: 81%. Then `CCOc1ccc(CC(=O)Nc2c(C(=O)c3ccc(F)cc3)oc3ccccc23)cc1OCC`, with inactive: 65%; and `CCC(O)c1nc2ccccc2n1Cc1cccc(Cl)c1` (stereo not drawn), with inactive: 90%; and `CN1CCN(S(=O)(=O)c2ccc(NC(=O)COc3ccccc3Cl)cc2)CC1`, with inactive: 110%. Then `Cc1ccccc1CSc1cn(CCNC(=O)c2cccs2)c2ccccc12`, with inactive: 79%. Then `COc1ccc(C(CNC(=O)COc2ccc(C)c(C)c2)N2CCCCC2)cc1` (stereo not drawn), with inactive: 85%. On to `CN(C)c1nc(C#N)nc(N2CCOCC2)n1`, for which the survival is inactive: 105%. Then `COc1cccc(/C=N/n2c(-c3ccco3)nc3ccccc3c2=O)c1`, with inactive: 105%. Then `Cc1cc(C)c(NC(=O)Cn2nc3c(cc2=O)CCCC3)c(C)c1`, with inactive: 88%.

Take `COCCCN1C(=O)N(c2ccccc2)C(=O)C1CC(=O)Nc1ccc(F)cc1` (stereo not drawn): the survival was inactive: 84%. As for `O=C(NCc1ccc2c(c1)CCN2C(=O)c1ccc(F)cc1)c1ccc(Br)o1`, the survival is inactive: 55%.

On to `COc1cc(OC)cc(C(=O)Nc2cc3nn(-c4ccccc4)nc3cc2Cl)c1`, for which the survival is inactive: 56%. On to `CCCS(=O)(=O)c1ncc(Cl)c(C(=O)N(Cc2ccccc2)Cc2ccco2)n1`, for which the survival is inactive: 44%. Then `CCOc1ccc(-c2oc3ccccc3c(=O)c2O)cc1OCC`, with inactive: 81%; and `O=C(Nc1ccc(S(=O)(=O)Nc2ccccc2)cc1)N1CCCC1`, with inactive: 72%. Turning to `COc1ccccc1NC(=O)N1CC(=O)Nc2sc3c(c2C1c1ccccc1)CCCC3` (stereo not drawn), the survival was inactive: 108%. Regarding `COc1ccccc1NC(=O)C1=C(C)Nc2c(C(=O)Nc3ccc(F)cc3)cnn2C1c1ccc(Cl)cc1` (stereo not drawn), the survival is inactive: 55%. Then `O=C(C1Cc2ccccc2CN1S(=O)(=O)c1ccc(F)cc1)N1CCCCC1` (stereo not drawn), with inactive: 101%; and `Cn1c(=O)c2c(nc(SCC(=O)Nc3ccc(OC(F)(F)F)cc3)n2Cc2cccc(C(F)(F)F)c2)n(C)c1=O`, with inactive: 85%. Then `COc1ccc(-c2noc(-c3ccc(NCc4ccc(C)cc4)c([N+](=O)[O-])c3)n2)cc1OC`, with inactive: 79%. With `COc1cccc(C2N(c3ccccc3)CCN2c2ccccc2)c1OC`, the survival was inactive: 105%. Then `Cc1ccc(S(=O)(=O)Nc2cc3c(cc2C)n(C)c(=O)c(=O)n3C)cc1`, with active: -4%. Then `O=C(Cn1c(=O)n(-c2ccc(F)cc2)c(=O)c2sc3ccccc3c21)N1CCCC1`, with inactive: 70%; and `Cc1cc(NC(=O)N2CC=C(c3c[nH]c4ccccc34)CC2)ccc1Br`, with inactive: 81%; and `CCOC(=O)c1sc2ccccc2c1S(=O)(=O)Nc1c(C)cccc1C`, with inactive: 79%. Then `Cn1nc(C(=O)NCc2ccccc2)c2c1-c1ccccc1SC2`, with inactive: 86%; and `Cc1ccc(CSC2=Nc3ccccc3C3=NC(CCC(=O)N4CCN(c5ccccc5)CC4)C(=O)N23)cc1` (stereo not drawn), with inactive: 98%. On to `Cc1ccc(-c2onc(C)c2C)cc1S(=O)(=O)N1CCCCC1`, for which the survival was inactive: 71%. Then `CCc1nn(CC(=O)NCCc2ccc(OC)cc2OC)c(=O)c2cc3sccc3n12`, with inactive: 125%; and `COc1cccc(CNC(=O)Cn2cc3c(n2)-c2c(oc(C(=O)N4CCCC4)c2C)CC3)c1OC`, with inactive: 88%. Then `Cc1ccccc1NC(=O)CSc1nc(-c2ccc(F)cc2)c2cccc(C)c2n1`, with inactive: 85%. With `COc1cc(CNC(=O)c2cc(-c3ccccc3)n[nH]2)cc(OC)c1OC`, the survival is inactive: 72%.

With `COc1ccc(-n2nc(C(=O)N3CCC(C)CC3)c3c4ccccc4n(C)c3c2=O)cc1Cl`, the survival is inactive: 84%. As to `CCCc1noc(-c2ccc(N3CCCCC3)c([N+](=O)[O-])c2)n1`, the survival was inactive: 77%.

For the compound `Cc1ccc2cc(CN(CCN(C)C)C(=O)NC3CCCCC3)c(=O)[nH]c2c1`, the survival is inactive: 111%. Then `COc1cccc(-c2nc(SCC(=O)Nc3ccc4c(c3)OCO4)c(-c3ccccc3)[nH]2)c1`, with inactive: 45%. Then `COc1cc(NC(=O)Cn2ncc3c(=O)oc4ccccc4c32)cc(OC)c1OC`, with inactive: 80%; and `Cc1nc2c(cnn2-c2ccccc2Cl)c(=O)n1-c1ccc(C(C)C)cc1`, with inactive: 94%; and `CCc1ccc(S(=O)(=O)c2nnn3c2nc(NCCc2ccccc2)c2sccc23)cc1`, with inactive: 61%.

Turning to `Cc1cccc(N2CCN(S(=O)(=O)c3cc(Br)cc4c3N(C(=O)C3CC3)CC4)CC2C)c1` (stereo not drawn), the survival was inactive: 75%. Turning to `COc1ccc(CCn2cc3c(c2-c2ccccc2Br)c(=O)n(C)c(=O)n3C)cc1OC`, the survival was inactive: 79%. For `COC(=O)c1ccc(-c2ccc(/C=N/NC(=O)CC3(C)OCCCO3)o2)cc1`, the survival was inactive: 109%. Then `CCOC(=O)c1cc(S(=O)(=O)Nc2ccc(OC)c(Cl)c2)[nH]n1`, with active: -6%; and `CCOC(=O)C1(C)C=C(Nc2ccc(C(N)=O)cc2)C(=O)N1c1ccccc1` (stereo not drawn), with inactive: 68%; and `COc1ccc2c(Sc3ccccc3)c(C(=O)NCc3cccc(OC)c3OC)[nH]c2c1`, with inactive: 89%. Then `CCOc1ccc(CCNC(=O)CCCc2nnc3n(CC(C)C)c(=O)c4sccc4n23)cc1`, with inactive: 89%.
